# Some of the results follow.
# Columns and labels:
# Assay in all cases: glycan array binding signal (z-score within array); higher = stronger binding
# Settings in all cases: glycan notation: IUPAC condensed, linker removed
# [1] = molecular target: Gal(a1-3)Gal(b1-4)GlcNAc(b1-2)Man
# In short: (§1)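 The Consortium for Functional Glycomics database supplied 3228 glycan arrays, of which those lacking an available protein sequence were dropped. The binding signal, a within-array Z-score, was averaged across arrays of the same protein sequence and across linkers. Negative scores can be read as non-binding.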
# [2] = molecular target: Gal(a1-3)Gal(b1-4)GlcNAc(b1-2)Man(a1-3)[Gal(a1-3)Gal(b1-4)GlcNAc(b1-2)Man(a1-6)]Man(b1-4)GlcNAc(b1-4)GlcNAc
# In short: as §1
# [3] = molecular target: Gal(a1-3)Gal(b1-4)GlcNAc(b1-3)GalNAc
# In short: as §1
# [4] = molecular target: Gal(a1-3)Gal(b1-4)GlcNAc(b1-6)GalNAc
# In short: as §1
# [5] = molecular target: Gal(a1-3)Gal(b1-4)[Fuc(a1-3)]GlcNAc
# In short: as §1
# [6] = molecular target: Gal(a1-3)Gal(b1-4)[Fuc(a1-3)]GlcNAc(b1-2)Man(a1-3)[Gal(a1-3)Gal(b1-4)[Fuc(a1-3)]GlcNAc(b1-2)Man(a1-6)]Man(b1-4)GlcNAc(b1-4)GlcNAc
# In short: as §1
# [7] = molecular target: Gal(a1-3)GalNAc
# In short: as §1
# [8] = molecular target: Gal(a1-3)[Gal(a1-4)]Gal(b1-4)GlcNAc
# In short: as §1
# [9] = molecular target: Gal(a1-4)Gal(b1-3)GlcNAc(b1-2)Man(a1-3)[Gal(a1-4)Gal(b1-3)GlcNAc(b1-2)Man(a1-6)]Man(b1-4)GlcNAc(b1-4)GlcNAc
# In short: as §1
# [10] = molecular target: Gal(a1-4)Gal(b1-4)Glc
# In short: as §1
# [11] = molecular target: Gal(a1-4)Gal(b1-4)GlcNAc
# In short: as §1
# [12] = molecular target: Gal(a1-4)Gal(b1-4)GlcNAc(b1-2)Man(a1-3)[Gal(a1-4)Gal(b1-4)GlcNAc(b1-2)Man(a1-6)]Man(b1-4)GlcNAc(b1-4)GlcNAc
# In short: as §1
# [13] = molecular target: Gal(a1-4)Gal(b1-4)GlcNAc(b1-3)Gal(b1-4)Glc
# In short: as §1
# [14] = molecular target: Gal(a1-4)GlcNAc
# In short: as §1
# [15] = molecular target: Gal(a1-6)Glc
# In short: as §1
# [16] = molecular target: Gal(b1-2)Gal
# In short: as §1
# [17] = molecular target: Gal(b1-3)Gal
# In short: as §1
# [18] = molecular target: Gal(b1-3)Gal(b1-4)GlcNAc
# In short: as §1
# [19] = molecular target: Gal(b1-3)GalNAc
# In short: as §1
# [20] = molecular target: Gal(b1-3)GalNAc(a1-3)[Fuc(a1-2)]Gal(b1-4)Glc
# In short: as §1
# [21] = molecular target: Gal(b1-3)GalNAc(a1-3)[Fuc(a1-2)]Gal(b1-4)GlcNAc
# In short: as §1
# [22] = molecular target: Gal(b1-3)GalNAc(b1-3)Gal
# In short: as §1
# [23] = molecular target: Gal(b1-3)GalNAc(b1-3)Gal(a1-4)Gal(b1-4)Glc
# In short: as §1
# [24] = molecular target: Gal(b1-3)GalNAc(b1-4)Gal(b1-4)Glc
# In short: as §1
# [25] = molecular target: Gal(b1-3)GalNAc(b1-4)[Neu5Ac(a2-3)]Gal(b1-4)Glc
# In short: as §1
# [26] = molecular target: Gal(b1-3)GlcNAc
# In short: as §1
# [27] = molecular target: Gal(b1-3)GlcNAc(a1-3)Gal(b1-4)GlcNAc
# In short: as §1
# [28] = molecular target: Gal(b1-3)GlcNAc(a1-6)Gal(b1-4)GlcNAc
# In short: as §1
# [29] = molecular target: Gal(b1-3)GlcNAc(b1-2)Man
# In short: as §1
# [30] = molecular target: Gal(b1-3)GlcNAc(b1-2)Man(a1-3)[Gal(b1-3)GlcNAc(b1-2)Man(a1-6)]Man(b1-4)GlcNAc(b1-4)GlcNAc
# In short: as §1
# [31] = molecular target: Gal(b1-3)GlcNAc(b1-2)Man(a1-3)[Gal(b1-3)GlcNAc(b1-2)Man(a1-6)]Man(b1-4)GlcNAc(b1-4)[Fuc(a1-6)]GlcNAc
# In short: as §1
# [32] = molecular target: Gal(b1-3)GlcNAc(b1-2)Man(a1-3)[GlcNAc(b1-4)][Gal(b1-3)GlcNAc(b1-2)Man(a1-6)]Man(b1-4)GlcNAc(b1-4)GlcNAc
# In short: as §1
# [33] = molecular target: Gal(b1-3)GlcNAc(b1-2)[Gal(b1-3)GlcNAc(b1-6)]Man(a1-6)[Gal(b1-3)GlcNAc(b1-2)Man(a1-3)]Man(b1-4)GlcNAc(b1-4)GlcNAc
# In short: as §1
# [34] = molecular target: Gal(b1-3)GlcNAc(b1-3)Gal(b1-3)GlcNAc
# In short: as §1
# [35] = molecular target: Gal(b1-3)GlcNAc(b1-3)Gal(b1-4)Glc
# In short: as §1
# [36] = molecular target: Gal(b1-3)GlcNAc(b1-3)Gal(b1-4)GlcNAc
# In short: as §1
# [37] = molecular target: Gal(b1-3)GlcNAc(b1-3)Gal(b1-4)GlcNAc(b1-2)Man(a1-3)[Gal(b1-3)GlcNAc(b1-3)Gal(b1-4)GlcNAc(b1-2)Man(a1-6)]Man(b1-4)GlcNAc(b1-4)GlcNAc
# In short: as §1
# [38] = molecular target: Gal(b1-3)GlcNAc(b1-3)Gal(b1-4)GlcNAc(b1-2)[Gal(b1-3)GlcNAc(b1-3)Gal(b1-4)GlcNAc(b1-6)]Man(a1-6)[Gal(b1-3)GlcNAc(b1-3)Gal(b1-4)GlcNAc(b1-2)Man(a1-3)]Man(b1-4)GlcNAc(b1-4)[Fuc(a1-6)]GlcNAc
# In short: as §1
# [39] = molecular target: Gal(b1-3)GlcNAc(b1-3)Gal(b1-4)GlcNAc(b1-3)Gal(b1-4)GlcNAc(b1-2)[Gal(b1-3)GlcNAc(b1-3)Gal(b1-4)GlcNAc(b1-3)Gal(b1-4)GlcNAc(b1-6)]Man(a1-6)[Gal(b1-3)GlcNAc(b1-3)Gal(b1-4)GlcNAc(b1-3)Gal(b1-4)GlcNAc(b1-2)Man(a1-3)]Man(b1-4)GlcNAc(b1-4)[Fuc(a1-6)]GlcNAc
# In short: as §1
# [40] = molecular target: Gal(b1-3)GlcNAc(b1-3)Gal(b1-4)GlcNAc(b1-6)[Gal(b1-3)GlcNAc(b1-3)]Gal(b1-4)Glc
# In short: as §1
# [41] = molecular target: Gal(b1-3)GlcNAc(b1-3)Gal(b1-4)[Fuc(a1-3)]GlcNAc
# In short: as §1
# [42] = molecular target: Gal(b1-3)GlcNAc(b1-3)Gal(b1-4)[Fuc(a1-3)]GlcNAc(b1-6)[Gal(b1-3)GlcNAc(b1-3)]Gal(b1-4)Glc
# In short: as §1
# [43] = molecular target: Gal(b1-3)GlcNAc(b1-3)GalNAc
# In short: as §1
# [44] = molecular target: Gal(b1-3)GlcNAc(b1-6)Gal(b1-4)GlcNAc
# In short: as §1
# [45] = molecular target: Gal(b1-3)GlcNAc(b1-6)GalNAc
# In short: as §1
binder,measurement,setting,value
rCnSL-proB (Clitocybe nebularis) (protein) PTFSPIFALLAFLPFGTLASLLPQTQLVFRINPNLPGPNDVFVGYRGTNNVVGAIYERDGIKDTPMNNGADAELGPGSYITDDLFTAQIFASGSAGNNPGTTATVCKIYADGVQWRGAPKGYLPVLYFGNGQAAEQTRQTYLQGLDIPGTAIRFANLAKTPNQGPTAPRQMVVPSGGLQTLLKASCFPANHAALPQVLSYFNVRAALPPGWNIRTGPEFPNWTN,glycan array binding signal (z-score),[1],0.01
same,glycan array binding signal (z-score),[2],0.78
same,glycan array binding signal (z-score),[3],-0.395
same,glycan array binding signal (z-score),[4],-0.496
same,glycan array binding signal (z-score),[5],-0.354
same,glycan array binding signal (z-score),[6],3.18
same,glycan array binding signal (z-score),[7],-0.678
same,glycan array binding signal (z-score),[8],-0.363
same,glycan array binding signal (z-score),[9],0.571
same,glycan array binding signal (z-score),[10],-0.285
same,glycan array binding signal (z-score),[11],-0.684
same,glycan array binding signal (z-score),[12],2.48
same,glycan array binding signal (z-score),[13],-0.611
same,glycan array binding signal (z-score),[14],-0.681
same,glycan array binding signal (z-score),[15],-0.587
same,glycan array binding signal (z-score),[16],0.126
same,glycan array binding signal (z-score),[17],0.217
same,glycan array binding signal (z-score),[18],-0.603
same,glycan array binding signal (z-score),[19],-0.544
same,glycan array binding signal (z-score),[20],0.126
same,glycan array binding signal (z-score),[21],-0.607
same,glycan array binding signal (z-score),[22],-0.333
same,glycan array binding signal (z-score),[23],-0.085
same,glycan array binding signal (z-score),[24],-0.19
same,glycan array binding signal (z-score),[25],-0.303
same,glycan array binding signal (z-score),[26],-0.192
same,glycan array binding signal (z-score),[27],1.66
same,glycan array binding signal (z-score),[28],-0.071
same,glycan array binding signal (z-score),[29],0.301
same,glycan array binding signal (z-score),[30],0.626
same,glycan array binding signal (z-score),[31],-0.42
same,glycan array binding signal (z-score),[32],0.778
same,glycan array binding signal (z-score),[33],2
same,glycan array binding signal (z-score),[34],-0.073
same,glycan array binding signal (z-score),[35],-0.509
same,glycan array binding signal (z-score),[36],0.517
same,glycan array binding signal (z-score),[37],3.58
same,glycan array binding signal (z-score),[38],0.414
same,glycan array binding signal (z-score),[39],0.308
same,glycan array binding signal (z-score),[40],0.635
same,glycan array binding signal (z-score),[41],-0.098
same,glycan array binding signal (z-score),[42],1.43
same,glycan array binding signal (z-score),[43],-1.39
same,glycan array binding signal (z-score),[44],-0.111
same,glycan array binding signal (z-score),[45],-0.04
